Consider 153 variants from a collection of fitness landscapes (doi:10.1016/j.celrep.2020.107928).

The full ranking holds about 81,000 sequences; the median of “one-hybrid fitness for binding NBS DNA” is about -0.1, and the highest 2% start at about 0.36. This is one part of the list.

Sequences and labels used below:
B1: Caulobacter ParB omega fusion; a variant is named by its letters at X, in order, B8GW30 (parent)
chain: MESVVVGEPGMSEGRRGLGRGLSALLGEVDAAPAQAPGEQLGGSREAPIEILQRNPDQPRRTFREEDLEDLSNSIREKGVLQPILVRPSPDTAGEYQIVAGERAWRAAQRAGLKTVPIMVRELDDLAVLEIGIIENVQRADLNVLEEALSYKVLMEKFERTQENIAQTIGKSXSHVANXMRLLXLPDEVQSYLVSGELTAXHARAIAAAADPVALAKQIIEGGLSVRETEALARKAPNLSAGKSKGGRPPRVKDTDTQALESDLSSVLGLDVSIDHRGSTGTLTITYATLEQLDDLCNRLTRGI

This test covers variants of B1. Nature of the test: one-hybrid fitness for binding NBS DNA (the Noc-binding site; scaled: cognate 1, non-cognate 0); higher = stronger binding. As to conditions: with NBS DNA site. The gist of the method:
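On M9-minus-histidine containing 0.1 mM IPTG and 5 mM 3-AT, E. coli USO cells with a HIS3 reporter, site 19 bp from the promoter, grew 48 hours at 37°C to select Caulobacter ParB libraries randomised at four specificity codons. Plasmids from before and after were Illumina-sequenced, with three replicate libraries pooled and variants under 10 reads left out. Fitness is the log change in variant-to-wild-type read ratio, rescaled against cognate and non-cognate.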
With SHVI, the “one-hybrid fitness for binding NBS DNA” value is not above 0.2. Turning to LMGR, the “one-hybrid fitness for binding NBS DNA” value was not above 0.2. On to NLER, for which the “one-hybrid fitness for binding NBS DNA” value is not above 0.2. As to ALQS, the “one-hybrid fitness for binding NBS DNA” value is not above 0.2. Turning to KNHD, the “one-hybrid fitness for binding NBS DNA” value was not above 0.2.

As to PYEG, the “one-hybrid fitness for binding NBS DNA” value was not above 0.2.

As to DSND, the “one-hybrid fitness for binding NBS DNA” value is not above 0.2. On to DSYG, for which the “one-hybrid fitness for binding NBS DNA” value was not above 0.2.

As to DLRF, the “one-hybrid fitness for binding NBS DNA” value is not above 0.2. Take IPSI: the “one-hybrid fitness for binding NBS DNA” value was not above 0.2. Then SPDS, with not above 0.2; and SGSS, with not above 0.2; and SACA, with not above 0.2.

For MFPE, the “one-hybrid fitness for binding NBS DNA” value was not above 0.2. Then GWRY, with not above 0.2. Regarding HNDS, the “one-hybrid fitness for binding NBS DNA” value is not above 0.2. Then LNAN, with not above 0.2. As for TPEG, the “one-hybrid fitness for binding NBS DNA” value was not above 0.2. Then GPDI, with not above 0.2. Then ALLE, with not above 0.2; and HLPG, with not above 0.2; and LATR, with not above 0.2. Then KCEG, with not above 0.2; and NKER, with not above 0.2.

For NSFC, the “one-hybrid fitness for binding NBS DNA” value is not above 0.2. On to TGDM, for which the “one-hybrid fitness for binding NBS DNA” value was not above 0.2.

With QTKC, the “one-hybrid fitness for binding NBS DNA” value stood at 0.53.

KTTS: the “one-hybrid fitness for binding NBS DNA” value was not above 0.2.

Consider ISIG, for which the “one-hybrid fitness for binding NBS DNA” value is not above 0.2. Then ARPL, with not above 0.2; and HWNY, with not above 0.2. Then TRHC, with not above 0.2; and GWRT, with not above 0.2; and DPMS, with not above 0.2. Then AQTM, with not above 0.2; and RVTE, with not above 0.2. Take ERNP: the “one-hybrid fitness for binding NBS DNA” value is not above 0.2. Then NNNG, with not above 0.2; and AGPY, with not above 0.2. On to TNDM, for which the “one-hybrid fitness for binding NBS DNA” value was not above 0.2.

With GPVT, the “one-hybrid fitness for binding NBS DNA” value is not above 0.2. On to QYTC, for which the “one-hybrid fitness for binding NBS DNA” value was not above 0.2. Then KKQC, with not above 0.2. VLTP: the “one-hybrid fitness for binding NBS DNA” value was not above 0.2. In the case of PGQN, the “one-hybrid fitness for binding NBS DNA” value is not above 0.2. As to LIGV, the “one-hybrid fitness for binding NBS DNA” value was not above 0.2. Then NKAR, with not above 0.2; and ADFY, with not above 0.2; and SKYG, with not above 0.2.

In the case of SLWI, the “one-hybrid fitness for binding NBS DNA” value is not above 0.2.

Consider TTLE, for which the “one-hybrid fitness for binding NBS DNA” value is not above 0.2. On to DLLW, for which the “one-hybrid fitness for binding NBS DNA” value was not above 0.2. Then PWYS, with not above 0.2; and PLMK, with not above 0.2; and AWPV, with not above 0.2. Then PLRQ, with not above 0.2; and PHDL, with not above 0.2. Then PKAY, with not above 0.2; and MINR, with not above 0.2; and NEEI, with not above 0.2.

Take CHGG: the “one-hybrid fitness for binding NBS DNA” value is not above 0.2. Then QRSW, with 0.261; and SQYS, with not above 0.2; and QPKN, with not above 0.2.

With NCLA, the “one-hybrid fitness for binding NBS DNA” value was not above 0.2.

Take SCWT: the “one-hybrid fitness for binding NBS DNA” value was not above 0.2. Consider WQLA, for which the “one-hybrid fitness for binding NBS DNA” value is not above 0.2. For SSPS, the “one-hybrid fitness for binding NBS DNA” value was not above 0.2.

SAMI: the “one-hybrid fitness for binding NBS DNA” value is not above 0.2.

For the variant DGIT, the “one-hybrid fitness for binding NBS DNA” value is not above 0.2. Then MTGG, with not above 0.2; and NPKT, with not above 0.2. Consider ARNC, for which the “one-hybrid fitness for binding NBS DNA” value was not above 0.2.

Turning to INNT, the “one-hybrid fitness for binding NBS DNA” value is not above 0.2. Consider CCSA, for which the “one-hybrid fitness for binding NBS DNA” value is not above 0.2. Then MMAL, with not above 0.2. PQGA: the “one-hybrid fitness for binding NBS DNA” value was not above 0.2. Regarding QQHA, the “one-hybrid fitness for binding NBS DNA” value came to 0.384. Then DHTT, with not above 0.2; and EIHR, with not above 0.2. Then QVMP, with not above 0.2. Then TAWL, with not above 0.2. NLLT: the “one-hybrid fitness for binding NBS DNA” value is not above 0.2. Then ELQL, with not above 0.2. Then LIQG, with not above 0.2; and HIWT, with not above 0.2; and GDRL, with not above 0.2. NSRL: the “one-hybrid fitness for binding NBS DNA” value is not above 0.2.

Regarding RKVM, the “one-hybrid fitness for binding NBS DNA” value was not above 0.2.

Consider GVQG, for which the “one-hybrid fitness for binding NBS DNA” value is not above 0.2. Consider TCHR, for which the “one-hybrid fitness for binding NBS DNA” value was not above 0.2. For NTCM, the “one-hybrid fitness for binding NBS DNA” value is not above 0.2. Take ALHQ: the “one-hybrid fitness for binding NBS DNA” value was not above 0.2.

Consider MYYW, for which the “one-hybrid fitness for binding NBS DNA” value was not above 0.2. Then ALGT, with not above 0.2. Turning to HRIW, the “one-hybrid fitness for binding NBS DNA” value was not above 0.2. Then NDFI, with not above 0.2; and GWRH, with not above 0.2; and GCGS, with not above 0.2. Then FRKA, with not above 0.2. For the variant HIFT, the “one-hybrid fitness for binding NBS DNA” value is not above 0.2. In the case of QRIK, the “one-hybrid fitness for binding NBS DNA” value came to 0.213. Then QFSL, with not above 0.2; and GSRY, with not above 0.2.

Take QHPH: the “one-hybrid fitness for binding NBS DNA” value was not above 0.2. For AALK, the “one-hybrid fitness for binding NBS DNA” value is not above 0.2. Then TLDC, with not above 0.2; and VPRP, with not above 0.2. Consider EAWM, for which the “one-hybrid fitness for binding NBS DNA” value is not above 0.2.

For TYGA, the “one-hybrid fitness for binding NBS DNA” value is not above 0.2. Then RHNN, with not above 0.2; and TMMT, with not above 0.2; and STIT, with not above 0.2. On to QARE, for which the “one-hybrid fitness for binding NBS DNA” value came out at 0.206.

Turning to RKKN, the “one-hybrid fitness for binding NBS DNA” value is 0.252. As for RYAV, the “one-hybrid fitness for binding NBS DNA” value was not above 0.2. LITW: the “one-hybrid fitness for binding NBS DNA” value was not above 0.2.

For the variant RELN, the “one-hybrid fitness for binding NBS DNA” value is not above 0.2.

For YLAI, the “one-hybrid fitness for binding NBS DNA” value is not above 0.2. Then RCVR, with 0.349; and QISQ, with not above 0.2; and LNVN, with not above 0.2.

For the variant FYWG, the “one-hybrid fitness for binding NBS DNA” value was not above 0.2. Then FCPL, with not above 0.2; and TADH, with not above 0.2.

On to YGWR, for which the “one-hybrid fitness for binding NBS DNA” value was not above 0.2. Then PYPH, with not above 0.2. Then QKPR, with 0.271. Then KRIW, with not above 0.2; and GANF, with not above 0.2. As for MWAG, the “one-hybrid fitness for binding NBS DNA” value was not above 0.2.

For KRCM, the “one-hybrid fitness for binding NBS DNA” value is not above 0.2. Take YKAS: the “one-hybrid fitness for binding NBS DNA” value was not above 0.2. For DHHR, the “one-hybrid fitness for binding NBS DNA” value was not above 0.2. As for CAGG, the “one-hybrid fitness for binding NBS DNA” value was not above 0.2. Then AWAL, with not above 0.2; and HGYW, with not above 0.2. With PKRD, the “one-hybrid fitness for binding NBS DNA” value is not above 0.2. Consider SAYG, for which the “one-hybrid fitness for binding NBS DNA” value was not above 0.2. Then WQMV, with not above 0.2. Then HHPM, with not above 0.2.

As to SHAW, the “one-hybrid fitness for binding NBS DNA” value is not above 0.2. Turning to KTNL, the “one-hybrid fitness for binding NBS DNA” value was not above 0.2. With TALW, the “one-hybrid fitness for binding NBS DNA” value is not above 0.2. On to HVQR, for which the “one-hybrid fitness for binding NBS DNA” value is not above 0.2.

Regarding CGLY, the “one-hybrid fitness for binding NBS DNA” value was not above 0.2. Then AASV, with not above 0.2; and WVMW, with not above 0.2; and DARC, with not above 0.2. With LRRT, the “one-hybrid fitness for binding NBS DNA” value is 0.342. For LSHG, the “one-hybrid fitness for binding NBS DNA” value was not above 0.2. Then SRFA, with not above 0.2; and DHGC, with not above 0.2.
